About 120 (0.25%) of roughly 48,000 compounds were called active. Not shown: some 4% with an inconclusive outcome. Calls come from the whole dose curve; as a rule, active = well fitted activation curve with a large enough effect; inconclusive = small, poorly fitted or top-dose-only effect, or another doubt; inactive = no such curve, though single readings can be large or run the other way. The list shows a part of the results.
assay: Primary qHTS for Identification of Small Molecule Activators of Huntingtin-Antisense Promoter Activity; settings: HEK293 HTT-AS promoter firefly luciferase reporter, 24 h; series mostly up to 57.5 µM; activity change, positive = activation: at the top concentration; note: nearly all actives have a fitted effect of over 55% in size
Summary of the method: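 Firefly luciferase signal from promoter-reporter HEK293 cells was scaled between vehicle (0%) and zero RLU (-100%). Compounds were tested at final concentrations of up to 57.5 uM over 24 h at 37 degrees C. PTC124 at 50 uM final served as control inhibitor.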

Activity change, positive = activation, inactive:
COCC(=O)O[C@]1(CCN(C)CCCc2nc3ccccc3[nH]2)CCc2cc(F)ccc2[C@@H]1C(C)C -16.3%, CCCOc1ccc(C(=O)Nc2sc3c(c2C(=O)OCC)CCCCC3)cc1 -5.69%, O=C1CC(c2ccc(F)cc2)c2c(n3c(nc4ccccc43)[nH]c2=O)N1 (stereo not given) -13.2%, O=C(O)CCCCC1CCSS1 (stereo not given) -3.03%, CCc1ccc(CNC(=O)C2CCN(C(=O)c3ccc(-n4ccc5ccccc54)s3)CC2)cc1 -15.3%, Cc1ccccc1CS(=O)(=O)c1ncc(Cl)c(C(=O)Nc2nnc(C(C)C)s2)n1 -95.4%, Cc1oc(-c2cccc(Br)c2)nc1CSc1nc2ncccc2[nH]1 -18.9%, CC(C)c1ccc(-c2noc(SCC(=O)N(C)c3ccc(F)cc3)n2)cc1 -56.9%, CCOC(=O)c1cc(OC(=O)c2cccc(F)c2)n(-c2ccccc2)n1 -23.3%, CC(=O)N1CCCc2ccc(NC(=O)c3ccc(C(F)(F)F)cc3)cc21 -51%, Cc1ccccc1-c1noc(-c2ccc(N3CCCC3)c([N+](=O)[O-])c2)n1 -76.8%, CCOc1ccc(N(C(=O)c2ccc(OC)cc2)S(=O)(=O)c2ccc3c(c2)n(C)c(=O)n3C)cc1 -11.1%, O=C(NCc1cccnc1)C1CCN(Cc2cc3ccccc3n2Cc2ccccc2)CC1 -14.8%, CCC(=O)OC1=CN(Cc2ccccc2)S(=O)(=O)c2ccccc21 -7.49%, CC(C)c1ccc(NC(=O)CN2C=NS(=O)(=O)c3ccccc32)cc1 -0.601%, CCC(=O)C1=C(c2ccc(F)cc2)N(C(=O)CC)n2c(nnc2C2CCCCC2)S1 -7.42%, Cc1cc(C)cc(NC(=O)CSc2nnc(CNC(=O)c3c(F)cccc3Cl)o2)c1 -4.88%, CN(C)c1ccc2cc(C(=O)N[C@@H](CCCN=C(N)CCl)C(=O)NCc3ccccc3)ccc2c1 -9.15%, CCN(CC)S(=O)(=O)c1ccc2c(c1)N(CC(=O)Nc1c(C)cc(C)cc1C)C(=O)CS2 -13.4%, COC(=O)c1cc2oc(C)cc2n1Cc1ccc(C)cc1 24.3%, O=C(CCNS(=O)(=O)c1ccc(Br)s1)Nc1ccc(Br)cc1 -8.89%, Cc1ccc(CNCc2ccc3c(c2)n(C)c(=O)n3C)cc1 -6.53%, c1ccc(Nc2c(-c3ccccc3)nc3ncccn23)cc1 -21.5%, COc1ccc2c(c1)c(=O)c(S(=O)(=O)c1ccc(F)cc1)cn2CC(=O)Nc1ccc(C)cc1C -12.9%, CCN1C(=O)c2ccccc2Sc2ccc(NC(=O)Cc3ccc(OC)c(OC)c3)cc21 -17.2%, COc1ccc(CN(C(=O)Nc2cc(C)ccc2C)C2CCN(C(C)=O)CC2)cc1 -18.5%, COc1cc(NS(=O)(=O)c2ccc(NC(=O)COc3ccc(Cl)cc3Cl)cc2)nc(OC)n1 0.784%, CCOc1cccc(CC(=O)NCc2ccc3c(c2)CCN3C(=O)c2cccc(C)c2)c1OCC -51.7%, CCOc1ccccc1N(CC)C(=O)Cn1ncc2c1-c1ccccc1OC2 -38%, CCOc1ccc(NC(=O)CSc2nc(-c3ccccc3)c3cc(OCC)ccc3n2)cc1 -6.67%, COc1ccc(CNC(=O)c2cnc3sc4cc(OC)ccc4n3c2=O)cc1 -5.76%, O=C(NCc1ccccc1Cl)C(=O)NCC(c1ccc2c(c1)OCO2)N1CCOCC1 (stereo not given) -17.1%, CCC(CC)C(=O)N1CCc2cc(OC)c(OC)cc2C1COc1ccc2c(C)cc(=O)oc2c1 (stereo not given) -6.75%, O=C(c1cc(S(=O)(=O)N2CCCC2)c[nH]1)N1CCN(c2cccc(Cl)c2)CC1 -14.7%, O=C(NCc1ccccc1Cl)c1cc(-c2ccccc2)n[nH]1 15.2%, COCCn1c(CCC(=O)Nc2ccc(OC)c(OC)c2)nc2cccnc21 3.16%, O=C(Cn1c2ncccc2c(=O)n1-c1ccccc1)NCc1ccccc1 -10.7%, Cc1nc(-c2ccccc2)sc1-c1ccc(SCC(=O)Nc2ccccc2)nn1 1.56%, CC(C)NCC(O)c1cc(O)cc(O)c1 (stereo not given) 2.08%, Cc1ccc(NC(=O)c2ccc(F)c(S(=O)(=O)NCCc3ccccc3)c2)cc1F -39.2%, Cc1oc(-c2cccc(Br)c2)nc1CN1CCC(C(=O)NCc2ccccc2)CC1 -3.03%, COc1cccc(C2C(C(N)=O)=C(C)Nc3nc(CCCO)nn32)c1 (stereo not given) -6.74%, COc1cccc(CNC(=O)Cc2c(C)c3cc4c(C)coc4cc3oc2=O)c1 -10.3%, Cc1cc(C)cc(NC(=O)CSc2nccn2C2CCCC2)c1 12.7%, COc1ccc(-c2nc(CSCC(=O)NCCc3ccc(OC)c(OC)c3)c(C)o2)cc1 -38.3%, Cc1sc(NC(=O)C2c3ccccc3Oc3ccccc32)c(C(=O)OC(C)C)c1C -12.7%, Cc1ccc(S(=O)(=O)c2nnn3c2nc(N(C)Cc2ccccc2)c2cc(Cl)ccc23)cc1C -19.8%, CC(C)NC(=O)C1=CC(c2ccc3c(c2)OCO3)=NS(=O)(=O)N1C -9.14%, COc1ccccc1CNC(=O)c1cc2cccc3c2n1CCS3 -22.7%, CCCSc1ncc(Cl)c(C(=O)NCc2ccc(C)cc2)n1 -27.1%, COc1ccc(CNC(=O)CCS(=O)(=O)c2cc3c4c(c2)CCN4C(=O)CC3)cc1OC -3.19%, COc1ccc(C2C(C(=O)Nc3cccnc3)=C(C)Nc3nc(-c4ccc(OC)c(OC)c4)nn32)cc1 (stereo not given) -22.3%, CCOC(=O)c1c(C)[nH]c(CCC(=O)NCc2cc(Br)ccc2OC)c1C -23.9%, Cc1c(C(=O)N2CCCC2)oc2c1-c1nn(CC(=O)NCc3ccccc3F)cc1CC2 -29.9%, CCN(CC)c1cc(NC2CCCCC2)c2c3c(onc13)-c1ccccc1C2=O -7.2%, CC1CCN(S(=O)(=O)c2ccc3c(c2)N(CC(=O)N(C)Cc2ccccc2)C(=O)CO3)CC1 -13.5%, Cn1cnc(S(=O)(=O)N2CCC(C(=O)Nc3ccc(OC(F)(F)F)cc3)CC2)c1 -29.8%, COc1cccc(CNC(=O)C2CCCN(c3nn4cc(-c5ccc(C)cc5)nc4s3)C2)c1 (stereo not given) -36.6%, O=c1c2sc3ccccc3c2n(Cc2cccc(Cl)c2)c(=O)n1Cc1ccc(F)cc1 -25.9%, Cc1cc(C)c(NC(=O)Cn2nnc3sc4c(c3c2=O)CCC(C(C)(C)C)C4)c(C)c1 (stereo not given) -7.68%, O=C(c1ccc2c(c1)N(Cc1ccccc1)C(=O)c1ccccc1S2(=O)=O)N1CCC(Cc2ccccc2)CC1 -0.358%, CCCCN1C(C(=O)c2ccccc2)=C(OC(=O)CC)c2ccccc2S1(=O)=O -49%, COc1cc(C2c3c(-c4ccccc4O)n[nH]c3C(=O)N2Cc2ccncc2)cc(OC)c1OC (stereo not given) -2.56%, Cc1nnc(N2CCCC(C(=O)Nc3cc(F)ccc3F)C2)c2nn(-c3ccccc3)c(C)c12 (stereo not given) -14.1%, CCCn1cnc2c1c(=O)n(CCCCC(C)=O)c(=O)n2C 0.0383%, CC1CCN(c2nc3ccccc3nc2SCC(=O)Nc2ccccc2C(C)C)CC1 -16.2%, CCCN1CCN(c2ncnc3sc(C(=O)Nc4ccc(OC(F)(F)F)cc4)c(C)c23)CC1 0.267%, CCCCN(CC)CCCNC(=O)c1ccc2c(c1)N(Cc1ccc(C)cc1)C(=O)c1ccccc1S2 -54.5%, COc1cc(NC(=O)COCc2cc(-c3ccc4c(c3)OCO4)on2)c(OC)cc1Cl -7.66%, CC(=O)c1ccc(NC(=O)Cn2c(=O)nc(-c3ccccc3)c3ccccc32)cc1 -1.47%, O=C(CS(=O)(=O)c1cccc2nsnc12)N1CCN(c2ccc(F)cc2)CC1 -12%, CCOc1ccc(C(=O)c2cn(CC(=O)Nc3ccc(C)c(Cl)c3)c3ccc(OCC)cc3c2=O)cc1 -9.3%, CCCCC(=O)OCc1cc(=O)n2nc(C3CC3)sc2n1 -2.25%, O=C(NC1(C(F)(F)F)N=C(c2ccccc2)N(Cc2ccccc2)C1=O)c1ccc(F)cc1 (stereo not given) -23.1%, CCOc1ccc(CCNC(=O)c2cc3n(n2)CCCN(Cc2ccc(C)cc2)C3=O)cc1OCC -21.3%, Cc1cc(-c2ccc(C)c(S(=O)(=O)Nc3ccc(C)c(N(C)C)c3)c2)on1 -33.5%, COc1ccc(C)cc1NS(=O)(=O)c1ccc2c(c1)CCCN2C(C)=O -16.5%, COc1ccc(-c2nc(SCC(=O)NCC3CCCO3)c(-c3ccc(C)cc3)[nH]2)cc1OC (stereo not given) -3.98%, COc1ccc(NC(=O)N2CCN(Cc3nc4ccc(C)cc4o3)CC2)cc1OC -12.5%, CCCCNC(=O)CN1CCN(c2ccc(NC(=O)c3ccc(OC)cc3)cc2C(=O)O)CC1 -5.57%, Cc1ccc(N(C)S(=O)(=O)c2nnc(NC(=O)c3ccco3)s2)cc1 -19.7%, COc1ccc(-c2c(C#N)c(SCC(=O)Nc3ccc(C)c(C)c3)nc(C)c2C(=O)Nc2ccccc2)cc1OC 0%, O=C(O)CN(CCN(CC(=O)O)CC(=O)O)CCN(CC(=O)O)CC(=O)O 0.615% [at 25.1 µM, percent change from vehicle, -100% = no light], COc1ccc(CNC(=O)C2CCN(C(=O)N3CCOc4ccc(C)cc43)CC2)cc1 -23.3%, CC1CCCN(C(=O)c2ccc(CSc3nc4ccncc4n3Cc3ccccc3)cc2)C1 (stereo not given) -9.42%, O=C(NCc1ccc(Cl)cc1)c1cc2cccc3c2n1CCS3 -23.4%, CCc1cc(C(=O)N2CCN(c3ccccc3)CC2)no1 15.6% [at 11.5 µM, percent change from vehicle, -100% = no light], Cc1cccc(-n2c(=O)c3c(c4cc(C)ccc4n3C)n(CC(=O)Nc3ccc(C)c(C)c3)c2=O)c1 -16.2%, CC(C)(C)NC(=O)Cn1cc(S(=O)(=O)Cc2ccccc2Cl)c2ccccc21 -2.5%, COc1ccccc1N1CCN(c2c3c(nc4nncn24)CCC3)CC1 -9.69%, Cc1cccc(NC(=O)Cn2c(=O)n(Cc3nc(-c4ccccc4)no3)c(=O)c3ccccc32)c1 -31%, COC(=O)c1sccc1S(=O)(=O)N(CC(=O)NCc1ccc(F)cc1)c1ccccc1 -19.7%, Cc1ccc(CNC(=O)C2CCCN(c3nc4ccccc4n4cccc34)C2)cc1 (stereo not given) -24.2%, COc1ccc(C(C)NC(=O)CN(c2cc(OC)ccc2OC)S(=O)(=O)c2ccccc2)cc1 (stereo not given) 10.4%, CC1CCN(CCCNC(=O)CN2C(=O)CSc3ccc(S(=O)(=O)N4CCCCC4)cc32)CC1 -9.91%
